By IC50 is meant the dose at which the fit gives 50% viability; a limit (>, <) means that the fit lies beyond the doses tested. For AUC the same curve is integrated over the 256-fold range of doses and scaled to a fraction; the more sensitive the line, the further below 1. For some of these results: The top dose, if marked as inferred, is not printed in the source and was worked back from the curve model. For some of these results: An entry number marks a drug with two screens in the source, which often give different values.
How the values were obtained:
Experiment in all cases: Viability of human cancer cell lines after 72 h of drug (GDSC screen)
AR-42 = compound: CC(C)[C@H](C(=O)Nc1ccc(C(=O)NO)cc1)c1ccccc1 [AR-42]; settings: top dose 5.12 µM; top dose inferred
Method: (§1)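 Human cancer cell lines in 384-well plates, medium with 10% serum, drug for 72 h over a 256-fold dose range (nine 2-fold or five 4-fold steps up to the top dose). Adherent lines were fixed and stained with the nucleic acid dye Syto60, suspension lines read with resazurin; signal relative to control wells, capped at 0 and 100%. One two-parameter sigmoid per drug and line, fitted in a mixed model over all curves with the slope shared within a line.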

SB 216763 = compound: Cn1cc(C2=C(c3ccc(Cl)cc3Cl)C(=O)NC2=O)c2ccccc21 [SB 216763]; settings: top dose 10 µM; top dose inferred
Method: as §1

CEP-701 = compound: C[C@]12O[C@H](C[C@]1(O)CO)n1c3ccccc3c3c4c(c5c6ccccc6n2c5c31)CNC4=O [CEP-701]; settings: top dose 2 µM; top dose inferred
Method: as §1

GDC0941 = compound: CS(=O)(=O)N1CCN(Cc2cc3nc(-c4cccc5[nH]ncc45)nc(N4CCOCC4)c3s2)CC1 [GDC0941]; settings: top dose 4 µM; screen: GDSC drug entry 1527; top dose inferred
Method: as §1

Pazopanib = compound: Cc1ccc(Nc2nccc(N(C)c3ccc4c(C)n(C)nc4c3)n2)cc1S(N)(=O)=O [Pazopanib]; settings: top dose 8 µM
Method: as §1

Cell Line	AUC (AR-42)	IC50 (AR-42)	AUC (SB 216763)	IC50 (SB 216763)	AUC (CEP-701)	IC50 (CEP-701)	AUC (GDC0941)	IC50 (GDC0941)	AUC (Pazopanib)	IC50 (Pazopanib)
A375 (melanoma, adherent)	0.524	0.367 µM	0.94	> 10 µM						
A549 (lung adenocarcinoma, adherent)			0.94	> 10 µM	0.393	0.061 µM				
BALL-1 (B-cell leukaemia, suspension)			0.997	> 10 µM	0.626	0.252 µM	0.983	> 4 µM		
BFTC-905 (bladder, adherent)	0.671	0.888 µM	0.924	> 10 µM			0.712	0.898 µM	0.973	> 8 µM
BT-549 (breast, adherent)			0.979	> 10 µM	0.607	0.277 µM				
CADO-ES1 (Ewing sarcoma, suspension)	0.247	0.0587 µM	0.968	> 10 µM	0.875	> 2 µM	0.978	> 4 µM		
CL-34 (large intestine, adherent)			0.985	> 10 µM	0.907	> 2 µM				
CL-40 (large intestine, adherent)			0.967	> 10 µM	0.772	1.39 µM				
CML-T1 (chronic myeloid leukaemia, suspension)			0.988	> 10 µM	0.579	0.197 µM	0.977	> 4 µM		
COLO-205 (large intestine, suspension)	0.556	0.453 µM	0.976	> 10 µM			0.726	1.08 µM	0.979	> 8 µM
COR-L321 (lung, suspension)	0.214	0.0466 µM	0.969	> 10 µM	0.762	0.714 µM	0.962	> 4 µM		
CRO-AP2 (B-cell lymphoma, suspension)			0.99	> 10 µM	0.48	0.111 µM	0.888	3.47 µM		
D-423MG (glioma, adherent)	0.518	0.361 µM	0.934	> 10 µM	0.693	0.495 µM	0.713	1.16 µM		
D-566MG (glioma, adherent)	0.571	0.499 µM	0.909	> 10 µM	0.448	0.0901 µM				
DOV13 (ovary, adherent)	0.984	> 5.12 µM	0.974	> 10 µM	0.356	0.0469 µM	0.73	1.27 µM		
ESO26 (oesophagus, adherent)	0.46	0.251 µM	0.985	> 10 µM	0.704	0.452 µM	0.808	1.93 µM		
ESO51 (oesophagus, semi-adherent)	0.53	0.399 µM	0.977	> 10 µM	0.745	0.862 µM	0.941	> 4 µM		
FLO-1 (oesophagus, adherent)	0.52	0.37 µM	0.945	> 10 µM	0.495	0.12 µM	0.62	0.621 µM		
HOS (osteosarcoma, adherent)	0.971	> 5.12 µM	0.959	> 10 µM	0.604	0.229 µM	0.881	3 µM		
HT-29 (large intestine, adherent)	0.493	0.305 µM	0.981	> 10 µM	0.703	0.465 µM				
Hs746T (stomach, adherent)	0.365	0.119 µM	0.981	> 10 µM	0.847	> 2 µM	0.776	2.19 µM		
IGR-37 (melanoma, adherent)	0.474	0.274 µM	0.989	> 10 µM	0.266	0.0289 µM				
IGROV-1 (ovary, adherent)			0.967	> 10 µM	0.699	0.596 µM	0.612	0.588 µM		

Cell Line	AUC (AR-42)	IC50 (AR-42)	AUC (SB 216763)	IC50 (SB 216763)	AUC (CEP-701)	IC50 (CEP-701)	AUC (GDC0941)	IC50 (GDC0941)	AUC (Pazopanib)	IC50 (Pazopanib)
JEKO-1 (B-cell lymphoma, suspension)			0.987	> 10 µM	0.318	0.0396 µM				
JHOS-2 (ovary, adherent)	0.675	1.07 µM	0.966	> 10 µM	0.615	0.273 µM	0.568	0.397 µM		
JHOS-3 (ovary, adherent)	0.902	> 5.12 µM	0.981	> 10 µM	0.918	> 2 µM	0.76	1.78 µM		
JHOS-4 (ovary, adherent)			0.98	> 10 µM	0.756	0.979 µM				
Jurkat (T-cell leukaemia, suspension)			0.993	> 10 µM	0.679	0.357 µM	0.889	3.13 µM		
KARPAS-1106P (B-cell lymphoma, suspension)			0.993	> 10 µM	0.328	0.0457 µM	0.896	3.38 µM		
KATOIII (stomach, semi-adherent)			0.969	> 10 µM	0.543	0.162 µM				
KMS-11 (myeloma, suspension)	0.321	0.11 µM	0.989	> 10 µM	0.744	0.55 µM				
KYAE-1 (oesophagus, suspension)	0.512	0.347 µM	0.984	> 10 µM	0.966	> 2 µM	0.49	0.234 µM		
MDA-MB-231 (breast, adherent)	0.593	0.584 µM	0.946	> 10 µM	0.731	0.594 µM				
MEL-HO (melanoma, adherent)			0.986	> 10 µM	0.535	0.156 µM	0.765	1.48 µM		
MHH-CALL-2 (B-cell leukaemia, suspension)			0.996	> 10 µM	0.725	0.442 µM	0.997	> 4 µM		
MKN7 (stomach, adherent)			0.928	> 10 µM	0.798	1.36 µM	0.821	3.46 µM		
MM1S (myeloma, suspension)			0.958	> 10 µM	0.606	0.24 µM				
MOLM-16 (acute myeloid leukaemia, suspension)			0.888	8.93 µM	0.086	< 0.00781 µM	0.445	0.181 µM		
MOLT-16 (T-cell lymphoblastic leukaemia, suspension)			0.992	> 10 µM	0.269	0.0325 µM	0.796	1.46 µM		
NCI-H146 (small cell lung carcinoma, suspension)			0.995	> 10 µM	0.958	> 2 µM	0.991	> 4 µM		
NCI-H508 (large intestine, semi-adherent)			0.954	> 10 µM	0.78	1.53 µM	0.661	0.953 µM		
NCI-H630 (large intestine, adherent)	0.643	0.822 µM	0.968	> 10 µM	0.832	1.41 µM	0.851	3.41 µM		
NCI-H835 (lung carcinoid, suspension)			0.989	> 10 µM	0.924	> 2 µM	0.91	> 4 µM		
NCI-H929 (myeloma, suspension)			0.991	> 10 µM	0.521	0.142 µM				
NCI-H1105 (small cell lung carcinoma, suspension)			0.989	> 10 µM	0.744	0.534 µM	0.968	> 4 µM		
NCI-H1341 (small cell lung carcinoma, suspension)			0.962	> 10 µM	0.666	0.334 µM	0.524	0.287 µM		

Cell Line	AUC (AR-42)	IC50 (AR-42)	AUC (SB 216763)	IC50 (SB 216763)	AUC (CEP-701)	IC50 (CEP-701)	AUC (GDC0941)	IC50 (GDC0941)	AUC (Pazopanib)	IC50 (Pazopanib)
NCI-H2172 (non-small cell lung carcinoma, adherent)	0.721	1.72 µM	0.982	> 10 µM	0.946	> 2 µM	0.905	> 4 µM		
NCI-N87 (stomach, adherent)			0.931	> 10 µM	0.891	> 2 µM	0.587	0.482 µM		
OACM5-1 (oesophagus, semi-adherent)	0.517	0.359 µM	0.982	> 10 µM	0.984	> 2 µM	0.868	> 4 µM		
OACp4C (oesophagus, adherent)	0.298	0.076 µM	0.982	> 10 µM	0.641	0.334 µM	0.733	1.34 µM		
OC-314 (ovary, adherent)	0.532	0.387 µM	0.971	> 10 µM	0.75	0.575 µM	0.722	0.953 µM		
OCI-LY7 (B-cell lymphoma, suspension)			0.98	> 10 µM	0.148	0.017 µM				
OV-7 (ovary, adherent)	0.57	0.55 µM	0.922	> 10 µM	0.902	> 2 µM	0.569	0.425 µM		
OV-17R (ovary, adherent)	0.463	0.243 µM	0.98	> 10 µM	0.811	1.63 µM	0.801	2.93 µM		
OV-56 (ovary, adherent)	0.627	0.705 µM	0.985	> 10 µM	0.792	0.868 µM	0.906	> 4 µM		
OVCA433 (ovary, adherent)	0.711	1.36 µM	0.985	> 10 µM	0.616	0.27 µM	0.717	1.11 µM		
OVCAR-8 (ovary, adherent)	0.314	0.103 µM	0.952	> 10 µM			0.87	3.07 µM	0.965	> 8 µM
QGP-1 (pancreas, adherent)	0.483	0.281 µM	0.962	> 10 µM	0.917	> 2 µM	0.941	> 4 µM		
RCC-ER (kidney, adherent)	0.834	3.92 µM	0.879	> 10 µM	0.69	0.456 µM	0.702	0.995 µM		
RCC-FG2 (kidney, adherent)	0.628	0.795 µM	0.971	> 10 µM	0.59	0.236 µM	0.748	1.6 µM		
RCH-ACV (B-cell leukaemia, suspension)			0.99	> 10 µM	0.314	0.0419 µM	0.43	0.167 µM		
RH-18 (rhabdomyosarcoma, adherent)			0.984	> 10 µM	0.881	> 2 µM	0.794	2.16 µM		
SK-MEL-31 (melanoma, adherent)			0.981	> 10 µM	0.82	1.59 µM	0.869	> 4 µM		
SNU-387 (liver, adherent)	0.476	0.273 µM	0.976	> 10 µM	0.632	0.305 µM				
SUP-B8 (B-cell leukaemia, suspension)			0.989	> 10 µM	0.239	0.0221 µM	0.987	> 4 µM		
Saos-2 (osteosarcoma, adherent)	0.975	> 5.12 µM	0.974	> 10 µM			0.716	1.35 µM	0.866	> 8 µM
U-266 (myeloma, semi-adherent)			0.894	> 10 µM						
VMRC-LCD (lung adenocarcinoma, adherent)			0.992	> 10 µM	0.541	0.159 µM	0.966	> 4 µM		
ZR-75-30 (breast, adherent)			0.941	> 10 µM	0.905	> 2 µM				

Reference: the supplement of paper PMC4967469
